Biological target: T1, Protein Arginine Methyltransferase-5 (human, UniProt O14744)
T1 construct: PRMT5 (Protein Arginine Methyltransferase-5), as crystallised in the PRMT5/MEP50 complex with MTA and AM-9934; also called PRMT5; source: baculovirus expression system, as PRMT5/MEP50 protein complex, according to literature procedures (26)
Test: crystal structure; PRMT5/MEP50 protein complex at 13.5 mg/mL mixed with MTA and AM-9934 (1:1.2:1.2), sitting drop vapor diffusion at 8 °C; 3.1 Å resolution
Details: both partners purified

Sequence of Protein Arginine Methyltransferase-5 (O14744 whole entry, the tested form may be a part): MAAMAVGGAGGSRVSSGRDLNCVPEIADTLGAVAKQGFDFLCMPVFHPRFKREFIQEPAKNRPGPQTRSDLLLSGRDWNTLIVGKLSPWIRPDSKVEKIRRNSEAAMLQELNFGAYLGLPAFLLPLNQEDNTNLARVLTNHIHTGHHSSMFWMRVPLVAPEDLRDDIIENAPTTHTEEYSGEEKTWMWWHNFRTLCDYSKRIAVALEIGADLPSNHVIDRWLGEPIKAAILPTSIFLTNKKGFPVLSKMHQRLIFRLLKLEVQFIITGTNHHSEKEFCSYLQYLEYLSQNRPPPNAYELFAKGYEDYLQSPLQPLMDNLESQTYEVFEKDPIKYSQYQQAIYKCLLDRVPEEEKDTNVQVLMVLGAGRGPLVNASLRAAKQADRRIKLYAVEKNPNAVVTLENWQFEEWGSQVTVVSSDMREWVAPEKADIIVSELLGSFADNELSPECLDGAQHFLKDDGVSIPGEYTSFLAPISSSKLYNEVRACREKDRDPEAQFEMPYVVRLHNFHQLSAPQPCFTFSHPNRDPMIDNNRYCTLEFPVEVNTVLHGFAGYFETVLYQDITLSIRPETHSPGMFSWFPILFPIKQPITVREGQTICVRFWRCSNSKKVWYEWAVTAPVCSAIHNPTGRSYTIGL

B1: methylosome protein 50 (natural protein)
chain: not shown
notes: MEP50 (methylosome protein 50), as crystallised in the PRMT5/MEP50 complex with MTA and AM-9934; also called MEP50; source: baculovirus expression system, as PRMT5/MEP50 protein complex, according to literature procedures (26)
- binding result: binds
